According to PubChem BioAssay AID1468 (National Center for Advancing Translational Sciences (NCATS), 2008):
Out of some 280,000 compounds screened, about 1,100 (0.39%) were called active. This list was built around the results that the source calls inconclusive (neither active nor inactive); the mix of calls is not that of the screen. Calls follow the shape of the dose curve; as a rule, active = well fitted inhibition curve with a large enough effect; inconclusive = small, poorly fitted or top-dose-only effect, or effect the other way; inactive = flat fitted curve, though single readings scatter. No potency is given beside an inconclusive call; the fits are too rough.

biological target: Microtubule-associated protein tau (Homo sapiens) (UniProt P10636); experiment: qHTS for Inhibitors of Tau Fibril Formation, Fluorescence Polarization; details: K18 P301L tau heparin fibrillization, Alexa594 FP, 6 h; series mostly up to 57.7 µM; activity, negative = inhibition: at the top concentration; also: nearly all actives have a fitted effect of over 55% in size
How it was run: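 K18 P301L tau (15 uM unlabeled/0.24 uM Alexa 594-labeled, final) + compound + heparin 20 uM final; 100 mM NaOAc pH 7; 6 hr 37 C; ThT 30 uM final added, 1 hr RT; FP ex 555/em 632 nm.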
% is scaled to controls: 0 for no effect and ±100 for the full control effect; potency is read from the fitted curve at half-maximal effect; tags tell the direction and shape of the fitted curve.

UniProt P10636, sequence (P10636 whole entry, looked up): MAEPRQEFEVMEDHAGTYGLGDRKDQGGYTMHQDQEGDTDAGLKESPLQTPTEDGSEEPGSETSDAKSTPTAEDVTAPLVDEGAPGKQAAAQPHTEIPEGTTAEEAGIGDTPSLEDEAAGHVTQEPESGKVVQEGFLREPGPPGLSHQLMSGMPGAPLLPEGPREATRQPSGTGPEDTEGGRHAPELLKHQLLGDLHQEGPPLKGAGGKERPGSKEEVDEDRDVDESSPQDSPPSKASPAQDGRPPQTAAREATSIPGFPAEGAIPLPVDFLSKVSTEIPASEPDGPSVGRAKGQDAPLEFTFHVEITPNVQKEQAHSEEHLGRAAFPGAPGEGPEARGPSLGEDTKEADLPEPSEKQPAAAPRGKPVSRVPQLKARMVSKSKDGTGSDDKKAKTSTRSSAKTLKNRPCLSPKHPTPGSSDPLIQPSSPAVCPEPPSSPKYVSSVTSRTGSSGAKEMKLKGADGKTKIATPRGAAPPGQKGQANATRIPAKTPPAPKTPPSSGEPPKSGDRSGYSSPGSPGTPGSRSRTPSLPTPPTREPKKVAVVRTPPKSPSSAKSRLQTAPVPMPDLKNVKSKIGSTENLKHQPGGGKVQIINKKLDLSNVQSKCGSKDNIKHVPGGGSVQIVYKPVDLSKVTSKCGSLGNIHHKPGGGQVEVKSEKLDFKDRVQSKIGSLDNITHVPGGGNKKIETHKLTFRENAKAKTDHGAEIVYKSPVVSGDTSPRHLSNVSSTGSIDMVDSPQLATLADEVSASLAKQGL

SMILES | activity, negative = inhibition | Potency
Cc1cc(C)c(C#N)c(N2CCN(Cc3ccccc3)CC2)n1 | inactive: -1.9% | 
COc1ccccc1-c1cc2nc(C)c(CCC(=O)Nc3ccc(Br)c(C)c3)c(C)n2n1 |  | inconclusive [inhibitor, partial curve, poor fit]
CC(C)COc1ccc(C(=O)Nc2cccc(-c3nc4ccccc4[nH]3)c2)cc1 |  | active: 20 µM
Cc1ccc2nc(-c3cc(NC(=O)c4ccc5c(c4)OCCO5)ccc3Cl)oc2c1 |  | inconclusive [inhibitor, partial curve]
COc1ccc(C2Sc3ccccc3NC3=C2C(=O)c2ccccc23)c(OC)c1OC (stereo not drawn) |  | inconclusive [inhibitor, single point]
CC[N+](C)(CC)CC(=O)OCC1C(C)C=C(C)CC1C (stereo not drawn) | inactive: -4.41% | 
Cc1ccc(S(=O)(=O)NCCc2cn3c(C)csc3n2)cc1 | inactive: 2.41% | 
COC(=O)Cn1c(=NC(=O)c2ccc(S(=O)(=O)N3CCc4ccccc4C3)cc2)sc2cc(OC)ccc21 |  | inconclusive [inhibitor, partial curve]
Cc1cc(C)c(C)c(S(=O)(=O)NCc2ccc(C(=O)N3CCCCC3)cc2)c1C | inactive: 1.88% | 
Cc1ccc(S(=O)(=O)Cc2nc(-c3ccc(C(=O)NCc4ccccc4)cc3)oc2C)cc1 |  | inconclusive [inhibitor, single point]
CC(C)Nc1nc(-c2ccccn2)nc(-c2ccccc2)c1C#N |  | inconclusive [inhibitor, partial curve]
COc1ccc(N2C(=O)[C@@H]3C(c4cccnc4)=NO[C@@H]3C2=O)cc1 | inactive: -3.76% | 
COc1ccccc1NS(=O)(=O)c1ccc(NN=C2CCCCC2)c([N+](=O)[O-])c1 |  | inconclusive [activator, partial curve]
COC(=O)c1c(NC(=O)c2ccc(C)o2)sc2c1CCCCC2 | inactive: -9.11% | 
O=C(NCC(c1cccs1)N1CCOCC1)c1ccccc1NS(=O)(=O)c1ccc(Cl)cc1 (stereo not drawn) | inactive: 2.8% | 
Cc1cccc(C)c1OCC(=O)Nc1nc(-c2ccc(Br)cc2)ns1 |  | inconclusive [inhibitor, partial curve]
CC(C)c1nc(SCC(=O)Nc2ccc(N3CCOCC3)cc2)c2ccccc2n1 |  | inconclusive [inhibitor, single point]
COc1ccc(NC(=O)CSc2nc3c(c(=O)n2-c2ccccc2)SCC3)c(OC)c1 |  | inconclusive [inhibitor, single point]
CCCCCC(/C=N/Nc1ccc(S(=O)(=O)N2CCOCC2)cc1[N+](=O)[O-])=C\c1ccccc1 |  | inconclusive [activator, full curve, poor fit]
O=C(CSc1nnc(COc2cccc3cccnc23)o1)N1CCc2ccccc21 | inactive: 1% | 
O=C(OC1CCCCC1)c1ccc(NC(=O)c2ccco2)cc1 |  | inconclusive [inhibitor, partial curve]
CCc1ccc2oc(-c3ccc(NC(=O)c4ccc(OC)c(Br)c4)cc3)nc2c1 |  | inconclusive [inhibitor, partial curve, poor fit]

SMILES | activity, negative = inhibition | Potency
Cc1cccc(Cn2cc(C(=O)Nc3ccc(F)c(C(F)(F)F)c3)ccc2=O)c1 |  | active: 25.1 µM
CCc1c(C)nc2cc(-c3cc(OC)cc(OC)c3)nn2c1N1CCCC1 |  | inconclusive [activator, partial curve, poor fit]
Cc1ccc(Cl)cc1NC(=O)C1CCC(CNS(=O)(=O)c2cccc3nsnc23)CC1 (stereo not drawn) |  | inconclusive [inhibitor, single point]
N#Cc1ccc(CS(=O)(=O)c2nnnn2-c2ccccc2)cc1 |  | inconclusive [inhibitor, single point]
COc1ccc2c(CNCCc3cccs3)c(C(=O)O)n(Cc3ccccc3)c2c1 | inactive: 2.54% | 
COC(=O)c1ccc(/C=N/OCC(=O)NC2CCCCCCC2)cc1 |  | inconclusive [activator, single point]
CC(=O)N1CCCN(Cc2cn(-c3cc(C)ccc3C)nc2-c2ccccc2)CC1 |  | inconclusive [inhibitor, single point]
COc1ccc(N2C(=O)CC(Sc3nnc(-c4ccccc4)o3)C2=O)cc1 (stereo not drawn) |  | inconclusive [inhibitor, full curve, poor fit]
O=C(NC1CCCc2ccccc21)c1ccc2c(c1)sc1nc(-c3ccc(F)cc3)cn12 (stereo not drawn) | inactive: 2% | 
CCOc1ccc(CCNC(=O)c2cc3c(=O)[nH]c4ccc(C)cc4c3s2)cc1OCC |  | inconclusive [inhibitor, single point]
COC(=O)Cn1c(=NC(=O)c2ccc(OC)cc2)sc2cc(OC)ccc21 |  | inconclusive [inhibitor, partial curve]
Cc1c(C(=O)N(C)C)sc2c1c(=O)n(-c1ccc(Cl)c(Cl)c1)c(=O)n2CC(=O)Nc1cccc(C(F)(F)F)c1 |  | inconclusive [inhibitor, partial curve]
Cc1nc2ccccc2nc(C)c1=NOCc1ccccc1Cl |  | inconclusive [activator, single point]
O=C(CCS(=O)(=O)c1cc(Br)cc2c1N(C(=O)C1CC1)CC2)Nc1ccc(Br)cc1F |  | inconclusive [inhibitor, partial curve, poor fit]
CN(C)/C=N/c1sc2c(c1C#N)CCCC2 | inactive: -0.819% | 
CCc1c(C)sc2nc3c(C(=O)N4CCOCC4)cc(C(=O)c4ccccc4O)cn3c(=O)c12 | inactive: -3.69% | 
CC(=O)C1C(=O)c2c(cccc2[N+](=O)[O-])C1=Nc1ccc(S(N)(=O)=O)cc1 (stereo not drawn) |  | inconclusive [inhibitor, single point]
O=C(Cc1noc2ccccc12)Nc1ccc2ccccc2c1 |  | inconclusive [inhibitor, partial curve]
Cc1cc(NC(=O)c2ccc3c(c2)OCO3)ccc1NC(=O)c1ccco1 | inactive: 3.4% | 
CN1C2CCC1CC(OC(=O)c1c[nH]c3ccccc13)C2 (stereo not drawn) |  | inactive
NC(=O)CSc1nc2ccc([N+](=O)[O-])cc2[nH]1 | inactive: 0.458% | 
